The full ranking holds about 2,300 sequences; the median of “median log2 fold change of GCK-ALFA target abundance (FLAG IP / Myc IP barcode read proportion)” is about 0.095, and the lowest 2% start at about -0.47. The list shows a part of the results.
B1: LC3A_102_144 (protein)
chain: SPEEEVKKLKEEFLKKAEEIAKKLEEKDPERAKKTLELLKKAINAIAEDAIDEIRHGFTDIEAYDIYLEAKEELEKLGDEEGLKLLEEAEKKFEEIVEKA
B2: LC3A_28_805 (protein)
chain: SATRANADAALAEARAALAAGEPVHVTITVPADATQAEIDYVAGVIREMARAAAAAGASSLSVVVDVDQNQTAVTTISNTEDELRAEGLPVNVVIALEEP
B3: LC3A_free_0_2105 (protein)
chain: TTVVGEVVAITEKALSEEDLAKVKAEMEEIAKELKEKYGMEVKVTVEEVDGRTVFTLEFSKEGMSVEEMIEIVDEVADRLEKKFKELGHDVTVYTSVYEE
B4: LC3A_28_1016 (protein)
chain: SALDKQLEAIEKEARAAIEAGEDVVLTLKITGDMTLEEVREAMARLKEIVLEGAKKGKVDLVIDLDADVTQEKRDIVFEAADEIEAAAPNVNVIIALEER
B5: LC3A_28_1099 (protein)
chain: SALEANLAAALAETRAAAAAGEEALIEITVTDEATEADLARLIATIEEIAEIAADLPALTVVIDLDGENAEAKANILSKAADELEKKYPNLTIIIALDED
B6: LC3A_free_39_2180 (protein)
chain: SEEELEEVKEEILKLAEEEGEEAKKIAEELLELVEGNLELAKLILEGLKKVKEAGGDVKAALKALLEEVKRMKKEGKSLEELKERIKEILEDHLNLIPLD
B7: LC3A_28_1259 (protein)
chain: SALDENIAAALAEVRAAVARGEEAVVTITVPAGATEEEIDRVIATMREIAELAAGLPRVTIIIDVERGVAQEHIDRLADEGERLEAEYPNLTVIIALEEE
B8: LC3A_3_1685 (protein)
chain: MEELVEEVLKIAKENGYSEETLKALKELLELLKERGYEKAIEKLKEELKRLKDASSELWKDMFEDLKHLLLTEDLSEEEVVKKIEEEARVIENDLEIEEL
B9: LC3A_28_706 (protein)
chain: MKLEESIKKAIEEAKKAAEEGKEAVITITIPSDATEEDIEKVIEALYEIAEITKDLKRTTIVIDIEGGVKQEHINKLIDAGEEIEKKYPNVTVIFALDEE
B10: LC3A_free_8_2550 (protein)
chain: ASAALTTAVTAKLDELSEELSKKAKELGLSQLDINELELEIGEAIIDIIELQDKSPEEILKKLKEDLEEIKELAKELGEELYALAKKLSEEILAAAEAMM
B11: LC3A_28_1066 (protein)
chain: NPLAAQLAAALAEARAAAAAGEEVTVTLTLDANSTDEDLDRVLATMEEIAEIAKDMPALSIIVDVDNPNKEEDTKRIAEKGEELEKRYPNVTVIIALSEE
B12: LC3A_free_8_2455 (protein)
chain: MNQKIVDKLTEMLEEMEEKLVKKLKELGKSRLDILELELEIGSAIADIISKVDESPEEILKTLKEDLERIIKLAEEIHPEVAKLAKEMSKKILEEAEKLI
B13: LC3A_3_1676 (protein)
chain: LEELVEEALETIDETIEDEEVRELFRRAVELLAARGLEEEIRAVAELVKEMKDLPTEKQLERAEALLATVEAATGSPEAAAAAVSSEISVLRNELEIEEL
B14: LC3A_28_915 (protein)
chain: SALDKSTEAAIKKIEEDAAKGEPAVVRLEVTEEDPAAAEAATRAALERLAEVMKKYKNVTVIVDAPERVLDAVTAVADEVEAELLKENPSNHIIVAAEEP
B15: LC3A_28_1220 (protein)
chain: AAVEAQIAAARAQMEAAKAKGEEALITVKVGGGTTVEDAKRLMDALEEIVAEAADLPSISIIIDVDGGVSQEVIDTIAEKGEAIEKKYPNVTVIIALDEE
B16: LC3A_3_1700 (protein)
chain: MEEILKEAEEILEKQGRSEETKEAALAAVKALLEKGYEEAAKTLLEKLKEAKDLSDEILKAFYEDVLRYVETEDVDEETAIKFINEEYEIAKNEQEIEEL
B17: LC3A_62_2051 (protein)
chain: MYRAVIDIDFLFETEEKAKKAAEEIKEAAEEIKEEYPEVEVEVEVEIEGTYLKVTVTLEAPNKETLEAAVNDLIDRFDEIAEKYGAKAVLISVDIEEVEP
B18: LC3A_132_292 (protein)
chain: QEELAKEILEKIKKLVEEAKKNIEDEEKVKKYLEEIEKLLREAAERLSPELLAEVMDKAVELLDELSRKFLEAGKEELAMEADGLRIEAASLSLRARESL
B19: LC3A_28_834 (protein)
chain: SLAEKQIEEAKKQLDEAKETKEDVLVEIEITSTMTPEEAEEIMDAVEEEISKLDKSIKVDIVVLFKEPASQEVIDVVTDKGEEIEEKFPNVNFIVALPEP
B20: LC3A_free_26_2165 (protein)
chain: DEFLDIAALDEAIENLEKAIKLAKENPNVSKELIELLERALKHLKKGTAESFKKAIEDLEKAIKLVKENKEIPEEDKEKLLKLLEEALKKAKENLKILEE
B21: LC3A_free_39_2244 (protein)
chain: SAEELEKAKEEILALAAEEGEEALELAKKILEILEGNVEATKKLLELLKQIKADGGDILEVLKEAVEVAEELEKEGKSQEEINEAIVETVQDHLNLLPLD
B22: LC3A_28_1329 (protein)
chain: SHIEEELAAAEAAAEEALARGEEALIEVKISGSTTLEEAEELMERLEEIVRRYAPEIKVSVVIDLSSSVSQEVIDLIAERAEEIEERYPNVTVIIALDEE
B23: LC3A_28_1148 (protein)
chain: SAMVEEAKAQIDADAEKDKNEKEIYLNVTFKKGITVEEAEEIMDHVEEVVEKNKDKEKIYIVIDFEEPISQEVLDLILKKADEIEKKFPNVDVIIALHED
B24: LC3A_147_467 (protein)
chain: YRTIVDIDILVKDAEEEVIERIKAIAEELKEKGYKVELEIESEKLPDGSTYIRARITIETETEEEAIEAANLVIDRLDELEEELKDEILGSLISVEIEKK
B25: LC3A_28_707 (protein)
chain: NALEASIAAALAEAKAAAAAGESTVIEIDIPGDATQEDIDKVIKALEEIAEILKDLPSTSIIINVDGKVKQEHIDKLADAAEEIEEKYPNVTVIIALDEN
B26: LC3A_free_8_2472 (protein)
chain: KIKETVKKITEKLDELAEKTRKKMKELGVSELDINELELEIGAAISDIISNSDKPIEELKKIAEEDLKEILELAKELGEEIAKLVEETAKEIEEILEKAL
B27: LC3A_free_37_2174 (protein)
chain: KAVIVVDIVPREELEAARKRAAARTEANRDDGDIRVREIVVPEDLEEAERVTREQLRAVLAEIRAEDPNAEVDVIIALDDLDTANVVADTADELLAEERA
B28: LC3A_28_957 (protein)
chain: SELEKELEKAIAEAKEAAKKGVPAVITINVPGTADEEDIEKVIEALEEIAEILKDVEGAAIIINVDGKVAQEHIDKLAEKAEEIEKKYPKITVIIALDEE
B29: LC3A_132_285 (protein)
chain: GEAARDAAVAKVKELLDEAEKNIDDEEKVRKLLEELKKYLEEVEKTESPEVVRAASETAADGLEKLSEKLEEKGKEELALEADSLAIEAESRALRAEEAL

Molecular target: MAP1LC3A, Q9H492
Experiment: median log2 fold change of GCK-ALFA target abundance (FLAG IP / Myc IP barcode read proportion) (log2 ratio); each designed protein is fused to an ALFA-tag nanobody in HEK293 cells to bring the named protein to FLAG-tagged glucokinase (GCK); Myc marks an untargeted standard; higher = target protein stabilised (more abundant)
Conditions: target protein: 3xFLAG-MCP-GCK-ALFA reporter; HEK293 landing pad (RPLP)
In short: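 The readout is target abundance, the per-binder median log2 ratio of FLAG to Myc barcode read proportions. It came from HEK293 landing-pad cells carrying a recombined ALFA-nanobody-fused binder library, induced with 2 μg mL^−1 doxycycline and transfected with a plasmid for a FLAG-tagged target and a Myc-tagged standard. After 48 h, lysates were immunoprecipitated with anti-FLAG and anti-Myc, and circular RNA barcodes were reverse transcribed, amplified and sequenced. Each barcode needed a proportion of at least 10^−7 in both replicates and each binder at least 3 barcodes per replicate, a pseudocount of 10^−6 was added, and the replicates were pooled.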

Binder | median log2 fold change
B1 | 0.111
B2 | 0.162
B3 | -0.0932
B4 | 0.0929
B5 | -0.0422
B6 | 0.392
B7 | 0.177
B8 | 0.31
B9 | 0.0438
B10 | 0.196
B11 | 0.133
B12 | -0.109
B13 | 0.218
B14 | 0.278
B15 | 0.0342
B16 | 0.13
B17 | -0.135
B18 | 0.283
B19 | 0.241
B20 | -0.0261
B21 | 0.315
B22 | 0.117
B23 | 0.0494
B24 | -0.47
B25 | 0.185
B26 | 0.168
B27 | 0.142
B28 | 0.162
B29 | 0.315

From the supplement of paper PMC12632987
